How the values were obtained:
重组人IL-6R = biological target: T1, 重组人IL-6R (human, UniProt P08887 20-365, limits assumed); test: ELISA, plate coated with recombinant human IL-6R, anti-human IgG1-Fc-HRP, OD450
T1 construct: Coated on ELISA plates; also called recombinant human IL-6R; hIL-6R
T1 sequence (looked up): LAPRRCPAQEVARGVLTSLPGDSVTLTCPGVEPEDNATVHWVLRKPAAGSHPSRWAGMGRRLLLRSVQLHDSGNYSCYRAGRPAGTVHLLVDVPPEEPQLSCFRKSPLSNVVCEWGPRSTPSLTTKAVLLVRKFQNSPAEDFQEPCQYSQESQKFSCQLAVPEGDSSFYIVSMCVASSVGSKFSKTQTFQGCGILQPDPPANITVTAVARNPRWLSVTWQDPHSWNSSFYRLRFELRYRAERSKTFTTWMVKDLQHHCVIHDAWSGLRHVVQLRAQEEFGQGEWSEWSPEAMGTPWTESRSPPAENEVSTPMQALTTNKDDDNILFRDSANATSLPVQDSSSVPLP

重组人VEGF-A 165 = biological target: T2, 重组人VEGF-A 165 (human, UniProt P15692-4 27-191); test: ELISA, plate coated with recombinant human VEGF-A165, anti-human IgG1-Fc-HRP, OD450
T2 construct: Coated on ELISA plates; also used in solution in the VEGFR2 reporter assay; also called recombinant human VEGF-A165
T2 sequence (looked up): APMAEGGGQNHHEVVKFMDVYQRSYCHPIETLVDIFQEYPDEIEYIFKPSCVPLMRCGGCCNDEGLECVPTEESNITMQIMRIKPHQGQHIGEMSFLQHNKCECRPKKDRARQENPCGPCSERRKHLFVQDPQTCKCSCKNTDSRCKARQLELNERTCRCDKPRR

重组人VEGF-B 167 = biological target: T3, 重组人VEGF-B 167 (human, UniProt P49765-2 22-188); test: ELISA, plate coated with recombinant human VEGF-B167, anti-human IgG1-Fc-HRP, OD450
T3 construct: Coated on ELISA plates; also called recombinant human VEGF-B167
T3 sequence (looked up): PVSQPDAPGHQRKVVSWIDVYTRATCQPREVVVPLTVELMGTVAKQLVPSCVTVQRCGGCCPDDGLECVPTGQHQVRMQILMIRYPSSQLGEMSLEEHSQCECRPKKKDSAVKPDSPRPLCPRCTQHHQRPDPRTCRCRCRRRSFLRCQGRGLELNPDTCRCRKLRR

Measured: binding result

B1: EB-DJ1 (Fc fusion)
chain: DIQMTQSPSSLSASVGDRVTITCRASQDISSYLNWYQQKPGKAPKLLIYYTSRLHSGVPSRFSGSGSGTDFTFTISSLQPEDIATYYCQQGNTLPYTFGQGTKVEIKRGGGGSGGGGSGGGGSQVQLQESGPGLVRPSQTLSLTCTVSGYSITSDHAWSWVRQPPGRGLEWIGYISYSGITTYNPSLKSRVTMLRDTSKNQFSLRLSSVTAADTAVYYCARSLARTTAMDYWGQGSLVTVSS[letters of human IgG1 Fc not shown]GSGGGGSGGGSDTGRPFVEMYSEIPEIIHMTEGRELVIPCRVTSPNITVTLKKFPLDTLIPDGKRIIWDSRKGFIISNATYKEIGLLTCEATVNGHLYKTNYLTHRQTNTIIDVVLSPSHGIELSVGEKLVLNCTARTELNVGIDFNWEYPSSKHQHKKLVNRDLKTQSGSEMKKFLSTLTIDGVTRSDQGLYTCAASSGLMTKKNSTFVRVHEK
notes: Dimer of IL-6R scFv - IgG1 Fc - flexible linker - VEGFR-1-D2-VEGFR-2-D3
binds: all assays above

B2: EB-vvA (Fc fusion)
chain: DIQMTQSPSSLSASVGDRVTITCRASQDISSYLNWYQQKPGKAPKLLIYYTSRLHSGVPSRFSGSGSGTDFTFTISSLQPEDIATYYCQQGNTLPYTFGQGTKVEIKRGGGGSGGGGSGGGGSQVQLQESGPGLVRPSQTLSLTCTVSGYSITSDHAWSWVRQPPGRGLEWIGYISYSGITTYNPSLKSRVTMLRDTSKNQFSLRLSSVTAADTAVYYCARSLARTTAMDYWGQGSLVTVSS[letters of human IgG1 Fc not shown]GSGGGSGGGGSGGGGGSGGGGSDTGRPFVEMYSEIPEIIHMTEGRELVIPCRVTSPNITVTLKKFPLDTLIPDGKRIIWDSRKGFIISNATYKEIGLLTCEATVNGHLYKTNYLTHRQTNTIIDVVLSPSHGIELSVGEKLVLNCTARTELNVGIDFNWEYPSSKHQHKKLVNRDLKTQSGSEMKKFLSTLTIDGVTRSDQGLYTCAASSGLMTKKNSTFVRVHEK
notes: Dimer of IL-6R scFv - IgG1 Fc - flexible linker (other length than in EB-DJ1) - VEGFR-1-D2-VEGFR-2-D3
binds: all assays above

B3: EB-vvC (Fc fusion)
chain: SDTGRPFVEMYSEIPEIIHMTEGRELVIPCRVTSPNITVTLKKFPLDTLIPDGKRIIWDSRKGFIISNATYKEIGLLTCEATVNGHLYKTNYLTHRQTNTIIDVVLSPSHGIELSVGEKLVLNCTARTELNVGIDFNWEYPSSKHQHKKLVNRDLKTQSGSEMKKFLSTLTIDGVTRSDQGLYTCAASSGLMTKKNSTFVRVHEK[letters of human IgG1 Fc not shown]GSGGGSGGGGSGGGGGSGGGGDIQMTQSPSSLSASVGDRVTITCRASQDISSYLNWYQQKPGKAPKLLIYYTSRLHSGVPSRFSGSGSGTDFTFTISSLQPEDIATYYCQQGNTLPYTFGQGTKVEIKRGGGGSGGGGSGGGGSQVQLQESGPGLVRPSQTLSLTCTVSGYSITSDHAWSWVRQPPGRGLEWIGYISYSGITTYNPSLKSRVTMLRDTSKNQFSLRLSSVTAADTAVYYCARSLARTTAMDYWGQGSLVTVSS
notes: Dimer of VEGFR-1-D2-VEGFR-2-D3 - IgG1 Fc - flexible linker - IL-6R scFv
binds: all assays above
